What all share (assay): Primary Screen for Target Class Profiling of Small Molecule Inhibitors of Methyltransferases
Assay [1] deals with Glycine N-methyltransferase (Homo sapiens) (UniProt Q14749). As to conditions: purified enzyme, MTase-Glo SAH luminescence; measured here: GNMT inhibition; at 40 µM; stronger effect = lower value. Put shortly: (§1)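 Each enzyme was assayed with SAM and its substrate. SAH formation detected by MTase-Glo luminescence; single-point 40 uM screen[…].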
In assay [2] the target is Guanidinoacetate N-methyltransferase (Homo sapiens) (UniProt Q14353). As to conditions: purified enzyme, MTase-Glo SAH luminescence; measured here: GAMT inhibition; at 40 µM; stronger effect = lower value. Summed up:
as §1

Assay [3] deals with Histamine N-methyltransferase (Homo sapiens) (UniProt P50135). As to conditions: purified enzyme, MTase-Glo SAH luminescence; measured here: HNMT inhibition; at 40 µM; stronger effect = lower value. Summed up: as §1
Assay [4] concerns the target Nicotinamide N-methyltransferase (Homo sapiens) (UniProt P40261). As to conditions: purified enzyme, MTase-Glo SAH luminescence; measured here: NNMT inhibition; at 40 µM; stronger effect = lower value. Summed up:
as §1

Assay [5] has as its target Phenylethanolamine N-methyltransferase (Homo sapiens) (UniProt P11086). To be noted: purified enzyme, MTase-Glo SAH luminescence; measured here: PNMT inhibition; at 40 µM; stronger effect = lower value. Summed up:
as §1

SMILES strings stand for the structures. Some of the results follow. The main result of the screen is listed elsewhere. These columns were measured beside it and carry no call.
On the % scale 0 is the no-effect control and ±100 the full control effect.

Turning to `COc1ccc(-c2cc3n(n2)CC(C)(C(=O)NCc2ccccc2)N(c2cc(OC)cc(OC)c2)C3=O)cc1` (stereo not given), the activity change, negative = inhibition in assay [1] was determined as 6.16%; in assay [2], 0.07%; in assay [3], 11.1%; in assay [4], 11.8%; in assay [5], 3.91%.
Regarding `CCC(C)NC(=O)c1ccc2c(=O)n(CCC(C)C)c3nn(CC(=O)Nc4cccc(C)c4)c(=O)n3c2c1` (stereo not given), the activity change, negative = inhibition in assay [1] was found to be 1.94%; in assay [2], 4.64%; in assay [3], 1.97%; in assay [4], 2.93%; in assay [5], 1.76%.
The like results for `CCN1Cc2ccccc2N(CC(O)Cc2ccccc2)CCC1=O` (stereo not given) were, in that order, -2.57%, -3.89%, -1.9%, -6.57% and -1.92%.
On the same counts, the results for `O=C(O)CO[C@@H]1COCC[C@H]1NC(=O)CCCn1cncn1` are -6.07%, -6.63%, -3.45%, -8.98% and -9.29%.
As for `CC1CCC(NC(=O)Cn2ccc3cc(S(=O)(=O)N4CCCC4)ccc32)CC1` (stereo not given), the activity change, negative = inhibition was -1.66% in assay [1]; -2.4% in assay [2]; -8.42% in assay [3]; -9.51% in assay [4]; -28.2% in assay [5].
On the same counts, the results for `CC(=O)/C=C/[C@H]1[C@](C)(O)[C@@H](O)[C@H](OC(C)=O)C2C(C)(C)CCC[C@@]21C` (stereo not given in full) are -1.09%, -0.326%, 6.84%, -12% and -5.91%.
The like results for `Cn1cc(-c2cnc(Nc3ccc(F)c(Cl)c3)c3c2CCO3)cn1` were, in that order, -5.55%, -4.81%, -0.707%, -3.78% and -2.21%.
Regarding `CCOC(=O)c1cc2n(n1)CC(C)(C(=O)NCc1ccc(Cl)cc1)N(c1ccc(OCC)cc1)C2=O` (stereo not given), the activity change, negative = inhibition came out at 3.53% in assay [1]; 0.36% in assay [2]; 6.32% in assay [3]; 3.25% in assay [4]; 4.95% in assay [5].
Regarding `O=C(c1ccc(F)cc1)N1CCC2(CNc3ccccc3[S+](=O)([O-])N2)C1` (stereo not given), the activity change, negative = inhibition in assay [1] was -4.6%; in assay [2] it was -8.24%; in assay [3] it was -0.885%; in assay [4], -14.1%; in assay [5], -8.94%.
In the case of `C[C@@H](Nc1cc(NS(=O)(=O)N2CCC2)nc(SCc2cccc(F)c2F)n1)[C@@H](O)CO`, the activity change, negative = inhibition is -0.936% in assay [1]; 4.71% in assay [2]; 12.2% in assay [3]; -8.51% in assay [4]; 5.8% in assay [5].
On to `COc1ccc(N2CCN(C(=O)CC3CCCCN(C)C3=O)CC2)cc1` (stereo not given), for which the activity change, negative = inhibition in assay [1] is -6.89%; in assay [2], -8.05%; in assay [3] it was -4.88%; in assay [4] it was -14.5%; in assay [5], -9.32%.
Consider `CCCn1c(=O)c2ccc(C(=O)NCC(C)C)cc2n2c(=O)n(Cc3ccc(F)cc3)nc12`, for which the activity change, negative = inhibition in assay [1] is 2.11%; in assay [2] it was 1.1%; in assay [3] it was 6.41%; in assay [4] it was 1.15%; in assay [5], 4.07%.
In the case of `Fc1ccccc1-c1noc(NCCc2ccc(Cl)cc2)n1`, the activity change, negative = inhibition was -11.2% in assay [1]; -6.34% in assay [2]; -2.37% in assay [3]; -22% in assay [4]; 1.55% in assay [5].
Turning to `C=C1CCC2C(C)(COC3OC(COC(=O)CC(=O)O)C(O)C(O)C3O)CCCC2(C)C1CCC1=CCOC1=O` (stereo not given), the activity change, negative = inhibition in assay [1] was 0%; in assay [2], -0.836%; in assay [3], -0.542%; in assay [4], -13.4%; in assay [5] it was 0.849%.
`Cc1ccc([S+](=O)([O-])NC[C@@H]2CC[C@H]3C[C@@H]2C3(C)C)cc1`: the activity change, negative = inhibition in assay [1] was -7.45%; in assay [2], -7.94%; in assay [3], -3.25%; in assay [4] it was -21.7%; in assay [5] it was -18.1%.
As to `C[C@@H](N)C(=O)N1CCC(C(=O)Nc2cccc(-c3cccc(Cl)c3)c2)CC1`, the activity change, negative = inhibition is -6.21% in assay [1]; -3.16% in assay [2]; -16% in assay [3]; -9.7% in assay [4]; -2.58% in assay [5].

The record behind these values is PubChem BioAssay AID1745853 (National Center for Advancing Translational Sciences (NCATS), 2022).
